In patent publication US5270302A, “Derivatives of tetrapeptides as CCK agonists” (priority 1991, dated 1993):
Counter-ions that a name gives are not always drawn. At least one peptide structure holds a part that was inferred or is arguable (an end, a ring closure or a residue). *1 amine or outer side, *2 acyl side, *3 side chain or, on linkers, in order; H or OH if unused. Where a SMILES comes first, the peptide text is derived from it. Side-chain parts run from the residue outwards. [ ]: non-standard residue; d: D form. The star is where a group is joined. ξ: configuration not given here. NMeW = CN[C@@H](Cc1c[nH]c2ccccc12)C(=O)O; ξαMeW = CC(N)(Cc1c[nH]c2ccccc12)C(=O)O; 1Nal = N[C@@H](Cc1cccc2ccccc12)C(=O)O; Butanoyl(3,3-Me2) = CC(C)(C)CC(=O)*; NMeF = CN[C@@H](Cc1ccccc1)C(=O)O; NMeD = CN[C@@H](CC(=O)O)C(=O)O; NH(2-Me-phenyl) = Cc1ccccc1N*; Suc = O=C(CCC(=O)[*:2])[*:1]; Boc = CC(C)(C)OC(=O)*; CO = O=C([*:1])[*:2]; Tfa = O=C(C(F)(F)F)*; Bz = O=C(c1ccccc1)*; Moc = COC(=O)*

Tested on: rats
Assay: Feeding effects of acute administration of CCK agonists in rats (liquid diet)
Type: in vivo
Details: i.p., acute (1 day)
Text: Feeding Effects of Acute Administration of CCK Agonists in Rats
The experimental paradigm used in the above-mentioned chronic feeding studies was employed to establish dose reponses for CCK agonists of this invention on an acute (1 day) basis. Following an 8-day diet acclimation period, the rats were weighed and injected with vehicle. CCK-8 or test compound (see Table 7) at doses ranging from 1-1000 nmol/kg (i.p.). Six to ten minutes later, the rats were presented with the diet and intakes were recorded. No injections were administered prior to the P.M. feeding. Mean A.M. intakes as a percent of control were plotted versus log dose (nm/kg) to establish the dose response curve.

COC(=O)C[C@H](NC(=O)[C@H](CCCCNC(=O)Nc1ccccc1C)NC(=O)[C@H](Cc1c[nH]c2ccccc12)NC(=O)OC(C)(C)C)C(=O)N(C)[C@@H](Cc1ccccc1)C(N)=O [Example 55, t-BOC-Trp-Lys(ε-N-(2-methylphenyl)aminocarbonyl)-Asp(OMe)(NMe)PheNH2] (Boc-WK([CO-NH(2-Me-phenyl)])D(OMe)[NMeF]-NH2)
ED25, suppression of feeding (liquid diet): 1.2 nmol/kg
ED50, dose required to decrease mean A.M. food intake by 50%: 6.8 nmol/kg

Cc1ccccc1NC(=O)NCCCC[C@H](NC(=O)C(F)Cc1c[nH]c2ccccc12)C(=O)N[C@@H](CC(=O)O)C(=O)N[C@@H](Cc1ccccc1)C(N)=O (stereo partly drawn) [Example 63, 2-Fluoro-3-(indol-3-yl)propionyl-Lys(ε-N-(2-methylphenyl)aminocarbonyl)-Asp-PheNH2]
ED25, suppression of feeding (liquid diet): 4.0 nmol/kg
ED50, dose required to decrease mean A.M. food intake by 50%: 193 nmol/kg

CN[C@@H](Cc1c[nH]c2ccccc12)C(=O)N[C@@H](CCCCNC(=O)Nc1ccccc1C)C(=O)N(C)[C@@H](CC(=O)O)C(=O)N[C@@H](Cc1ccccc1)C(N)=O [Example 69, HCl-(NMe)Trp-Lys(ε-N-(2-methylphenyl)aminocarbonyl)-(NMe)Asp-PheNH2] (H-[NMeW]K([CO-NH(2-Me-phenyl)])[NMeD]F-NH2)
ED25, suppression of feeding (liquid diet): 0.7 nmol/kg
ED50, dose required to decrease mean A.M. food intake by 50%: 7.0 nmol/kg

COC(=O)N[C@@H](Cc1c[nH]c2ccccc12)C(=O)N[C@@H](CCCCNC(=O)Nc1ccccc1C)C(=O)N[C@@H](CC(=O)O)C(=O)N(C)[C@@H](Cc1ccccc1)C(N)=O [Example 80, Methoxycarbonyl-Trp-Lys(ε-N-(2-methylphenyl)aminocarbonyl)-Asp-(NMe)PheNH2] (Moc-WK([CO-NH(2-Me-phenyl)])D[NMeF]-NH2)
ED25, suppression of feeding (liquid diet): 0.6 nmol/kg
ED50, dose required to decrease mean A.M. food intake by 50%: 3.7 nmol/kg

COC(=O)N[C@@H](Cc1c[nH]c2ccccc12)C(=O)N[C@@H](CCCCNC(=O)Nc1ccccc1C)C(=O)N(C)[C@@H](CC(=O)O)C(=O)N[C@@H](Cc1ccccc1)C(N)=O [Example 81, Methoxycarbonyl-Trp-Lys(ε-N-(2-methylphenyl)aminocarbonyl)-(NMe)Asp-PheNH2] (Moc-WK([CO-NH(2-Me-phenyl)])[NMeD]F-NH2)
ED25, suppression of feeding (liquid diet): 0.42 nmol/kg
ED50, dose required to decrease mean A.M. food intake by 50%: 1.52 nmol/kg

CNC(=O)N[C@@H](Cc1c[nH]c2ccccc12)C(=O)N[C@@H](CCCCNC(=O)Nc1ccccc1C)C(=O)N[C@@H](CC(=O)O)C(=O)N(C)[C@@H](Cc1ccccc1)C(N)=O [Example 83, Methylaminocarbonyl-Trp-Lys(ε-N-(2-methylphenyl)aminocarbonyl)-Asp-(NMe)PheNH2] ({NHMe-CO}-WK([CO-NH(2-Me-phenyl)])D[NMeF]-NH2)
ED25, suppression of feeding (liquid diet): 3.6 nmol/kg
ED50, dose required to decrease mean A.M. food intake by 50%: 30 nmol/kg

CC(=O)N[C@@H](Cc1c[nH]c2ccccc12)C(=O)N[C@@H](CCCCNC(=O)Nc1ccccc1C)C(=O)N[C@@H](CC(=O)O)C(=O)N(C)[C@@H](Cc1ccccc1)C(N)=O [Example 85, Acetyl-Trp-Lys(ε-N-(2-methylphenyl)aminocarbonyl)-Asp-(NMe)PheNH2] (Ac-WK([CO-NH(2-Me-phenyl)])D[NMeF]-NH2)
ED25, suppression of feeding (liquid diet): 5 nmol/kg
ED50, dose required to decrease mean A.M. food intake by 50%: 11 nmol/kg

CC(=O)N[C@@H](Cc1c[nH]c2ccccc12)C(=O)N[C@@H](CCCCNC(=O)Nc1ccccc1C)C(=O)N(C)[C@@H](CC(=O)O)C(=O)N[C@@H](Cc1ccccc1)C(N)=O [Example 86, Acetyl-Trp-Lys(ε-N-(2-methylphenyl)aminocarbonyl)-(NMe)Asp-PheNH2] (Ac-WK([CO-NH(2-Me-phenyl)])[NMeD]F-NH2)
ED25, suppression of feeding (liquid diet): 0.27 nmol/kg
ED50, dose required to decrease mean A.M. food intake by 50%: 1.3 nmol/kg

Cc1ccccc1NC(=O)NCCCC[C@H](NC(=O)[C@H](Cc1c[nH]c2ccccc12)NC(=O)CC(C)(C)C)C(=O)N[C@@H](CC(=O)O)C(=O)N(C)[C@@H](Cc1ccccc1)C(N)=O [Example 87, t-Butylacetyl-Trp-Lys(ε-N-(2-methylphenyl)aminocarbonyl)-Asp-(NMe)PheNH2] ({Butanoyl(3,3-Me2)}-WK([CO-NH(2-Me-phenyl)])D[NMeF]-NH2)
ED25, suppression of feeding (liquid diet): 1.0 nmol/kg
ED50, dose required to decrease mean A.M. food intake by 50%: 6.7 nmol/kg

Cc1ccccc1NC(=O)NCCCC[C@H](NC(=O)[C@H](Cc1c[nH]c2ccccc12)NC(=O)C(F)(F)F)C(=O)N(C)[C@@H](CC(=O)O)C(=O)N[C@@H](Cc1ccccc1)C(N)=O [Example 88A, trifluoroacetyl-Trp-Lys(ε-N-(2-methylphenyl)aminocarbonyl)-(NMe)Asp-PheNH2] (Tfa-WK([CO-NH(2-Me-phenyl)])[NMeD]F-NH2)
ED25, suppression of feeding (liquid diet): 1.1 nmol/kg
ED50, dose required to decrease mean A.M. food intake by 50%: 3.75 nmol/kg

Cc1ccccc1NC(=O)NCCCC[C@H](NC(=O)[C@H](Cc1c[nH]c2ccccc12)NC(=O)c1ccccc1)C(=O)N[C@@H](CC(=O)O)C(=O)N(C)[C@@H](Cc1ccccc1)C(N)=O [Example 89, Benzoyl-Trp-Lys(ε-N-(2-methylphenyl)aminocarbonyl)-Asp-(NMe)PheNH2] (Bz-WK([CO-NH(2-Me-phenyl)])D[NMeF]-NH2)
ED25, suppression of feeding (liquid diet): 4.2 nmol/kg
ED50, dose required to decrease mean A.M. food intake by 50%: 64.4 nmol/kg

Cc1ccccc1NC(=O)NCCCC[C@H](NC(=O)[C@H](Cc1c[nH]c2ccccc12)NC(=O)c1ccccc1)C(=O)N(C)[C@@H](CC(=O)O)C(=O)N[C@@H](Cc1ccccc1)C(N)=O [Example 90, Benzoyl-Trp-Lys(ε-N-(2-methylphenyl)aminocarbonyl)-(NMe)Asp-PheNH2] (Bz-WK([CO-NH(2-Me-phenyl)])[NMeD]F-NH2)
ED25, suppression of feeding (liquid diet): 0.3 nmol/kg
ED50, dose required to decrease mean A.M. food intake by 50%: 2.9 nmol/kg

Cc1ccccc1NC(=O)NCCCC[C@H](NC(=O)[C@H](Cc1c[nH]c2ccccc12)NC(=O)CCC(=O)O)C(=O)N[C@@H](CC(=O)O)C(=O)N(C)[C@@H](Cc1ccccc1)C(N)=O [Example 94, (3-Carboxylpropionyl)-Trp-Lys(ε-N-(2-methylphenyl)aminocarbonyl)-Asp-(NMe)PheNH2] (Suc-WK([CO-NH(2-Me-phenyl)])D[NMeF]-NH2)
ED25, suppression of feeding (liquid diet): 2.0 nmol/kg
ED50, dose required to decrease mean A.M. food intake by 50%: 15.6 nmol/kg

Cc1ccccc1NC(=O)NCCCC[C@H](NC(=O)C(C)(Cc1c[nH]c2ccccc12)NC(=O)OC(C)(C)C)C(=O)N[C@@H](CC(=O)O)C(=O)N[C@@H](Cc1ccccc1)C(N)=O (stereo partly drawn) [Example 96, t-BOC-D,L-(α-methyl)Trp-Lys(ε-N-(2-methylphenyl)aminocarbonyl)-Asp-PheNH2] (Boc-[ξαMeW]K([CO-NH(2-Me-phenyl)])DF-NH2)
ED25, suppression of feeding (liquid diet): 3.2 nmol/kg
ED50, dose required to decrease mean A.M. food intake by 50%: 10.9 nmol/kg

CN[C@@H](Cc1c[nH]c2ccccc12)C(=O)N[C@@H](CCCCNC(=O)Nc1ccccc1C)C(=O)N(C)[C@@H](CC(=O)O)C(=O)N[C@@H](Cc1cccc2ccccc12)C(N)=O [Example 100, (NMe)Trp-Lys(ε-N-(2-methylphenyl)aminocarbonyl)-(NMe)Asp-α-NalNH2] (H-[NMeW]K([CO-NH(2-Me-phenyl)])[NMeD][1Nal]-NH2)
ED25, suppression of feeding (liquid diet): 1.5 nmol/kg
ED50, dose required to decrease mean A.M. food intake by 50%: 6.9 nmol/kg
